The values below come from the supplement of paper PMC9938546.

The structures appear in SMILES notation. Counter-ions that a name gives are not always drawn. Some of the results follow. Single values are uncertain, as repeats are few or missing.
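Note: viability estimated indirectly by image-based GFP quantification with live-cell imaging of the constitutively GFP-expressing human colorectal cancer line, no immune cells added.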

The test relates to HCT116-GFP. Kind of test: HCT116-GFP viability (GFP intensity) relative to untreated control, monoculture; higher = less cancer cell killing. The note with it: culture: HCT116-GFP monoculture; 10 µM; 72 h.
As to `O=C(NCCO[N+](=O)[O-])c1cccnc1` [Nicorandil], the HCT116-GFP viability is 104%.
As for `CC1=Nc2ccc(Cl)cc2S(=O)(=O)N1` [Diazoxide], the HCT116-GFP viability is 91.2%.
Under `CC(C(=O)O)c1ccc(N2Cc3ccccc3C2=O)cc1` (centres undefined) [Indoprofen] stands 93.2%.
Next, `CCn1nc(C(=O)O)c(=O)c2cc3c(cc21)OCO3` [Cinoxacin]: 106%; `Cc1cc(/C=C/c2ccc3cc(N(C)C)ccc3[n+]2C)c(C)n1-c1ccccc1` [Pyrvinium pamoate]: 17.4%.
As for `CCCCNc1ccc(C(=O)OCCOCCOCCOCCOCCOCCOCCOCCOCCOC)cc1` [Benzonatate], the HCT116-GFP viability turned out to be 82.7%.
Turning to `COCCOC(=O)C1=C(C)NC(C)=C(C(=O)OC/C=C/c2ccccc2)C1c1cccc([N+](=O)[O-])c1` (centres undefined) [Cilnidipine], the HCT116-GFP viability was determined as 54.3%.
Next, `O=C(O)/C=C/c1ccc(Cn2ccnc2)cc1` [Ozagrel hydrochloride]: 91.9%; `CCCc1nc(C)c2c(=O)nc(-c3cc(S(=O)(=O)N4CCN(CC)CC4)ccc3OCC)[nH]n12` [Vardenafil]: 92.4%; `CC(C)NC[C@@H](O)COc1cccc2ccccc12` [(R)-Propranolol hydrochloride]: 105%.
As for `CC(C)NCC(O)c1ccc(O)c(O)c1` (single isomer, unassigned; (+)) [(+)-Isoproterenol (+)-bitartrate salt], the HCT116-GFP viability was found to be 82.2%.
For the compound `CNCC(O)c1ccc(OC(=O)C(C)(C)C)c(OC(=O)C(C)(C)C)c1` (centres undefined) [Dipivefrin hydrochloride], the HCT116-GFP viability is 102%.
Under `CCN(CC)CCc1nc(-c2ccccc2)no1` [Oxalamine citrate salt] stands 94.9%; under `Cc1c(N(C)CS(=O)(=O)O)c(=O)n(-c2ccccc2)n1C` [Dipyrone], 99.4%; under `O=c1[nH]c(=O)n(C2CCCO2)cc1F` (centres undefined) [Tegafur], 87%.
Take `CC(NCCC(c1ccccc1)c1ccccc1)c1ccccc1` (centres undefined) [Fendiline hydrochloride]: the HCT116-GFP viability was 38.5%.
For `COc1c2occc2c(OC)c2c(=O)cc(C)oc12` [Khellin], the HCT116-GFP viability turned out to be 97.7%.
Next, `CC[C@H](C)C(=O)O[C@H]1CCC=C2C=C[C@H](C)[C@H](CC[C@@H]3C[C@@H](O)CC(=O)O3)[C@H]21` [Mevastatin]: 62.1%; `Nc1cc(C(Cl)=C(Cl)Cl)c(S(N)(=O)=O)cc1S(N)(=O)=O` [Clorsulon]: 101%; `C[C@H](CCC(=O)O)[C@H]1CC[C@H]2[C@@H]3[C@H](O)C[C@@H]4C[C@H](O)CC[C@]4(C)[C@H]3CC[C@]12C` [Chenodiol]: 102%.
As to `CN1CCN(c2c(F)cc3c(=O)c(C(=O)O)cn(CCF)c3c2F)CC1` [Fleroxacin], the HCT116-GFP viability worked out at 80.3%.
Next, `CC(=O)OCC(CCn1cnc2cnc(N)nc21)COC(C)=O` [Famciclovir]: 109%; `NNc1nncc2ccccc12` [Hydralazine hydrochloride]: 90.3%.
In the case of `Cc1nc(=O)c2cc(CN(C)c3ccc(C(=O)N[C@@H](CCC(=O)O)C(=O)O)s3)ccc2[nH]1` [Raltitrexed], the HCT116-GFP viability worked out at 50.5%.
Under `CN1CCN(CCCN2c3ccccc3Sc3ccc(Cl)cc32)CC1` [Prochlorperazine dimaleate] stands 45%; under `O=c1oc2ccccc2c(O)c1Cc1c(O)c2ccccc2oc1=O` [Dicumarol], 99.2%; under `COc1ccc(C2CNC(=O)C2)cc1OC1CCCC1` (centres undefined) [Rolipram], 93.5%.
As to `O=S(=O)(O)c1cc(O)ccc1O` [Ethamsylate], the HCT116-GFP viability came out at 93.5%.
As for `CCC(=O)O[C@]1(C(=O)CCl)[C@@H](C)C[C@H]2[C@@H]3CCC4=CC(=O)C=C[C@]4(C)[C@@]3(F)[C@@H](O)C[C@@]21C` [Clobetasol propionate], the HCT116-GFP viability amounted to 99.1%.
Take `c1ccc([C@H]2CN3CCSC3=N2)cc1` [Levamisole hydrochloride]: the HCT116-GFP viability came to 91.2%.
Next, `O=C1OCCN1/N=C/c1ccc([N+](=O)[O-])o1` [Furazolidone]: 90.4%; `Nc1nc2n[nH]nc2c(=O)[nH]1` [Azaguanine-8]: 44.6%; `CN(C)c1nc(N(C)C)nc(N(C)C)n1` [Altretamine]: 106%.
In the case of `CC(C)NCC(O)c1ccc2ccccc2c1` (centres undefined) [Pronethalol hydrochloride], the HCT116-GFP viability was 103%.
With `C[C@H]1C[C@@H]2[C@H]([C@@H](O)C[C@@]3(C)[C@H]2CC[C@]3(O)C(=O)CO)[C@@]2(C)C=CC(=O)C=C12` [Methylprednisolone, 6-alpha], the HCT116-GFP viability worked out at 103%.
As to `NC(=O)C(c1ccccc1)(c1ccccc1)[C@@H]1CCN(CCc2ccc3c(c2)CCO3)C1` [Darifenacin hydrobromide], the HCT116-GFP viability amounted to 75%.
`CCCNCC(O)COc1ccccc1C(=O)CCc1ccccc1` (centres undefined) [Propafenone hydrochloride]: the HCT116-GFP viability is 90.1%.
In the case of `COc1cc([C@@H]2c3cc4c(cc3[C@@H](O[C@@H]3O[C@@H]5CO[C@@H](C)O[C@H]5[C@H](O)[C@H]3O)[C@H]3COC(=O)[C@H]23)OCO4)cc(OC)c1O` [Etoposide], the HCT116-GFP viability is 31.3%.
With `COc1ccccc1OCC(O)CN1CCN(CC(=O)Nc2c(C)cccc2C)CC1` (centres undefined) [Ranolazine], the HCT116-GFP viability was 100%.
